In US9617324B2, “Ameliorating agent for blood-brain barrier dysfunction” (Nagasaki University, priority 2012, dated 2017):
Read-outs that look alike come from different tables or passages of the source. Non-standard residues stand in square brackets, D forms with d. Residues, ends and D or L forms follow the SMILES beside them. No end group written: not given here. Nle = CCCC[C@H](N)C(=O)O; Nva = CCC[C@H](N)C(=O)O

System: model of retinal ischemia (retinal ischemic dysfunction)
Settings: for inhibitory effect on retinal ischemic dysfunction (ERG a-wave, b-wave): into vitreous body after 24 hours of ischemia, retinal potential after a week, 1 to 10 pmol; for activity / protective action on retinal ischemic dysfunction: peptides with the Peptide 9 sequence shifted or deleted (FIG. 2)

In the case of “pEEVDEE (not fully specified (residue 1); listed as Homo sapiens) [Peptide D]”, the “activity in a model of retinal ischemia compared with P6” value (“activity in a model … compared with P6” for short) (P6 derivatives) is reported as “activity equal to or higher than that of P6”.

With “ADNEVDEEEEEGGEEEEEEEEGDGEEEDGD [Peptide P30, reference compound]” the “inhibitory effect on retinal ischemic dysfunction (ERG a-wave, b-wave)” value was “almost equal and excellent inhibitory effect on retinal ischemic dysfunction”.

With ADNEVDEE the “activity / protective action on retinal ischemic dysfunction” value (from here on “activity / protective action”) was “the activity declines”.

NEVDEEE [P+1N/−3C, NEVDEEE] was tested, and the “activity / protective action” value (listed as SEQ ID NO:13) was “activity equal to that of a peptide comprising the amino acid sequence shown in SEQ ID NO:1”.

For NQVDEE [Peptide J], the “activity in a model … compared with P6” value (mouse, in vivo) was “activity equal to or higher than that of P6”.

With NEVNEE-NH2 [Peptide T] the “activity in a model … compared with P6” value (mouse, in vivo) was “activity equal to or higher than that of P6”.

With NEVDEQ [Peptide O] the “activity in a model … compared with P6” value (mouse, in vivo) was “activity equal to or higher than that of P6”.

In the case of “Ac-NEVDEE-NH2 [Peptide F, N-acetyl-P6-amide]”, the “activity in a model … compared with P6” value (mouse, in vivo) is reported as “activity equal to or higher than that of P6”.

For NEVNEE [Peptide M], the “activity in a model … compared with P6” value (mouse, in vivo) was “activity equal to or higher than that of P6”.

With DNEVDEEEE [P+2N/−2C, D NEVDEEEE] the “activity / protective action” value (listed as SEQ ID NO:31) was “higher protective action on retinal ischemic dysfunction than that of ProTα9”.

With NEVDEEEEE [P+1N/−1C, NEVDEEEEE] the “activity / protective action” value was “high protective action on retinal ischemic dysfunction” and the “activity / protective action” value (listed as SEQ ID NO:30) was “higher protective action on retinal ischemic dysfunction than that of ProTα9”.

For NEVDEE [Peptide P6, NEVDEE], the “dose showing the greatest protective effect” value (mouse, in vivo) was 10 pmol/eye.

In the case of `CCC[C@H](N)C(=O)N[C@@H](CCC(=O)O)C(=O)N[C@H](C(=O)N[C@@H](CC(=O)O)C(=O)N[C@@H](CCC(=O)O)C(=O)N[C@@H](CCC(=O)O)C(=O)O)C(C)C` [Peptide H] (H-[Nva]EVDEE-OH), the “activity in a model … compared with P6” value (mouse, in vivo) is reported as “activity equal to or higher than that of P6”.

With NELDEE [Peptide K] the “activity in a model … compared with P6” value (mouse, in vivo) was “activity equal to or higher than that of P6”.

With DNEVDEE [SEQ ID NO:12] the “activity / protective action” value was “activity equal to that of a peptide comprising the amino acid sequence shown in SEQ ID NO:1”.

In the case of Ac-NEVDEE [Peptide G], the “activity in a model … compared with P6” value (mouse, in vivo) is reported as “activity equal to or higher than that of P6”.

In the case of NEVDE [P+1N/−5C], the “activity / protective action” value is reported as “the activity declined” and the “activity / protective action” value (listed as 5 amino acid peptide comprising amino acids from position 51 to 55) is reported as “the activity declines”.

With “EVDEEEEEG [Peptide P9, reference compound]” the “concentration required to obtain an equal effect, fold higher than P30 and P6” value (ERG, intravitreal after 24 hours of ischemia) was “about 6 fold” and the “inhibitory effect on retinal ischemic dysfunction (ERG a-wave, b-wave)” value was “weaker”.

With “pEEVNEE (not fully specified (residue 1); listed as Homo sapiens) [Peptide B]” the “activity in a model … compared with P6” value (P6 derivatives) was “activity equal to or higher than that of P6”.

For “Peptide P: P6 derivative peptide (EEVNEE)”, the “activity in a model … compared with P6” value (mouse, in vivo) was “activity equal to or higher than that of P6”.

In the case of NEVDQE-NH2 [Peptide U], the “activity in a model … compared with P6” value (mouse, in vivo) is reported as “activity equal to or higher than that of P6”.

For NEVDED [Peptide N], the “activity in a model … compared with P6” value (mouse, in vivo) was “activity equal to or higher than that of P6”.

For `CCCC[C@H](N)C(=O)N[C@@H](CCC(=O)O)C(=O)N[C@H](C(=O)N[C@@H](CC(=O)O)C(=O)N[C@@H](CCC(=O)O)C(=O)N[C@@H](CCC(=O)O)C(=O)O)C(C)C` [Peptide I] (H-[Nle]EVDEE-OH), the “activity in a model … compared with P6” value (mouse, in vivo) was “activity equal to or higher than that of P6”.

With “Peptide S: P6 derivative peptide (EEVDEE)” the “activity in a model … compared with P6” value (mouse, in vivo) was “activity equal to or higher than that of P6”.

For NEVDQE [Peptide A, NEVDQE], the “activity in a model … compared with P6” value (mouse, in vivo) was “activity equal to or higher than that of P6”.

For NEVEEE [Peptide C, NEVEEE], the “activity in a model … compared with P6” value (mouse, in vivo) was “activity equal to or higher than that of P6”.

In the case of NEVDEE-NH2 [Peptide E, NEVDEE-NH2], the “activity in a model … compared with P6” value (mouse, in vivo) is reported as “activity equal to or higher than that of P6”.
